Assay results from PubChem BioAssay AID2675 (National Center for Advancing Translational Sciences (NCATS), 2010).
The whole screen tested about 280,000 compounds, of which about 100 (0.036%) were called active. This list was built around the results that the source calls inconclusive (neither active nor inactive); the mix of calls is not that of the screen. Calls follow the shape of the dose curve; as a rule, active = well fitted inhibition curve with a large enough effect in the signal ratio, with a control signal flat (not every such curve was filed as active); inconclusive = small, poorly fitted or top-dose-only effect, or effect the other way, or a change in a side signal; inactive = no such curve, though single readings can be large or run the other way; the % refers to the signal ratio. Potencies of inconclusive entries are doubtful fits and often do not repeat. “Side channel” marks fits to a control or component signal instead of the main read-out.

These compounds were tested against Muscleblind-like protein 1 (Homo sapiens) (UniProt Q9NR56) (assay: qHTS Assay for Inhibitors of MBNL1-poly(CUG) RNA binding). Conditions: TR-FRET MBNL1-His/biotin-(CUG)12 binding, 665/545 ratio; activity change, negative = inhibition: at 57.5 µM (top of the series).
Chain of UniProt Q9NR56 (Q9NR56 whole entry, looked up): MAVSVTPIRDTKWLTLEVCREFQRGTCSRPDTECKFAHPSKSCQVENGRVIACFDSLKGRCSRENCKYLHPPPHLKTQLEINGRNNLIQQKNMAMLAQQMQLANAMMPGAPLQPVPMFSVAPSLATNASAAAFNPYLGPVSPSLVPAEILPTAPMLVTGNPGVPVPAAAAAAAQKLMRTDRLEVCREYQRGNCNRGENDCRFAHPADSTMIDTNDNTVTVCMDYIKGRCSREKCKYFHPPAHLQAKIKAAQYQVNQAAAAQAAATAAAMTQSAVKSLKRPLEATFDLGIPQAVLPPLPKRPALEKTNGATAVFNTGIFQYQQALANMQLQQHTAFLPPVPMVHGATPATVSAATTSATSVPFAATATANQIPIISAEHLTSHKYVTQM
How it was run: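 Compounds (final 92 nM to 58 uM) are added to His-tagged MBNL1 and biotin-(CUG)12, then terbium anti-His antibody and streptavidin-XL665 (5 nM final). After 60 min at room temperature, the 665/545 nm ratio is read.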
% is scaled to controls: 0 for no effect and ±100 for the full control effect; potency is read from the fitted curve at half-maximal effect; tags tell the direction and shape of the fitted curve or compound fluorescence and quenching.

Row | Structure (SMILES) | activity change, negative = inhibition | Potency
1 | CC[C@@]1(c2ccccc2)C(=O)N(C(=O)OC)N1C(=O)OC | inactive: -6.39% | 
2 | COc1ccc(/C(C)=N\NC(=O)CSc2nnc(C)s2)cc1 | inactive: -1.5% | 
3 | S=C(Nc1ccc2nccnc2c1)N1CCOCC1 |  | inconclusive: 28.2 µM [quencher, side channel, partial curve]
4 | COc1cc(CNc2ccc3[nH]c(=O)[nH]c3c2)cc(Cl)c1OCC(=O)NC(C)(C)C |  | inconclusive: 15.8 µM [quencher, side channel, partial curve]
5 | O=[N+]([O-])c1ccccc1/C=N/N1CCN(c2ccccn2)CC1 | inconclusive: 28.1% [phenotype inactive] | 
6 | CCN1CCN(Cc2c(O)ccc3c2O/C(=C\c2ccccc2)C3=O)CC1 |  | inconclusive: 28.2 µM [quencher, single point]
7 | O=C(CCCN1C(=O)S/C(=C/c2ccccc2)C1=S)Nc1ccc(C(=O)O)cc1 |  | inconclusive: 3.55 µM [quencher, side channel, single point]
8 | N#Cc1ccc(-c2csc(NC3=NCCCCC3)n2)cc1 |  | inconclusive: 7.94 µM [quencher, partial curve]
9 | COc1cc(/C=N/NC(=O)C(=O)N2CCCCCC2)ccc1O |  | inconclusive: 3.98 µM [quencher, side channel, full curve, poor fit]
10 | Cc1cc(NS(=O)(=O)c2ccc(NC(=O)COc3ccc(Cl)cc3Cl)cc2)no1 | inactive: -3.34% | 
11 | CCOC(=O)c1c(NC(=S)Nc2ccccc2)sc2c1CCN(CC)C2 |  | inconclusive: 10 µM [quencher, side channel, partial curve]
12 | COc1ccc(/C=N/c2c(-c3ccc(OC)cc3)nc3n2CCS3)cc1 |  | inconclusive: 6.31 µM [quencher, side channel, single point]
13 | O=C1c2cccc([N+](=O)[O-])c2C(=O)N1C1CCCCC1 |  | inconclusive: 14.1 µM [quencher, side channel, partial curve]
14 | C/C(=N\NC(=S)Nc1cccc(C)c1)c1cccc(N)c1 |  | inconclusive: 0.316 µM [fluorescent, side channel, full curve]
15 | C/C(N)=C(/C#N)C(=O)CSc1nc2ccccc2c(=O)n1Cc1ccc(C)cc1 |  | inconclusive: 35.5 µM [fluorescent, side channel, single point]
16 | CCOC(=O)COc1cccc2c(=O)n(CC(=O)NCc3ccc(F)cc3)ccc12 | inactive: -3.21% | 
17 | CC(=O)Nc1ccc(N=NC2C(=O)N(C(N)=S)N=C2C)cc1 (stereo not given) |  | inconclusive: 6.31 µM [quencher, side channel, partial curve]
18 | O=C(CCN1CCCCCC1)c1ccccc1 | inactive: -2.73% | 
19 | COc1ccc(N2C(=O)c3ccccc3S2(=O)=O)cc1 | inactive: -5.35% | 
20 | O=C(CCN1C(=O)c2ccc([N+](=O)[O-])cc2C1=O)Nc1cccc(O)c1 |  | inconclusive: 3.16 µM [quencher, side channel, full curve]
21 | Cc1nc2ccc(NC(=O)NCc3ccco3)cc2s1 |  | inconclusive: 39.8 µM [inhibitor, single point]
22 | COc1ccc(Cn2nnnc2C(c2ccccn2)N2CCN(c3cc(Cl)ccc3C)CC2)cc1 (stereo not given) | inactive: -7.3% | 

Row | Structure (SMILES) | activity change, negative = inhibition | Potency
23 | O=C(CSc1nccc(=O)[nH]1)c1cc2ccccc2o1 |  | inconclusive: 20 µM [quencher, side channel, single point]
24 | COc1ccc2oc(=O)c(C(C)=O)cc2c1 |  | inconclusive: 3.16 µM [quencher, side channel, full curve]
25 | CCN(CC)S(=O)(=O)c1cccc(NC(=O)c2ccc(Sc3nncn3C)c([N+](=O)[O-])c2)c1 |  | inconclusive: 14.1 µM [quencher, side channel, partial curve]
26 | COc1cccc2cc(-c3csc(NC(=O)CCC(=O)NCCCN4CCC(C)CC4)n3)c(=O)oc12 |  | inconclusive: 3.55 µM [quencher, side channel, full curve, poor fit]
27 | COc1ccc(C(=O)NCCCn2ccnc2)cc1[N+](=O)[O-] |  | inconclusive: 22.4 µM [quencher, side channel, partial curve, poor fit]
28 | COn1c(=O)c(-c2ccc(C)cc2)[n+]([O-])c2ccccc21 |  | inconclusive: 44.7 µM [quencher, partial curve, poor fit]
29 | COCCn1c(=N)c(S(=O)(=O)c2ccc(F)cc2)cc2c(=O)n3ccccc3nc21 |  | inconclusive: 3.16 µM [quencher, full curve]
30 | CCOC(=O)c1c(-c2ccc(C)o2)csc1NC(=O)CN1CCC(C(N)=O)CC1 | inactive: 22.9% | 
31 | NC(=O)C1CCN(C(=O)C2CCN(S(=O)(=O)c3ccccc3)CC2)CC1 |  | inconclusive: 0.447 µM [quencher, side channel, full curve]
32 | COC(=O)CSc1nc2sc3c(c2c(=O)n1-c1ccccc1)CCN(C)C3 |  | inconclusive: 14.1 µM [quencher, side channel, partial curve]
33 | CCCn1cc2c(c1-c1ccc(C)cc1)c(=O)n(C)c(=O)n2C | inactive: 0.853% | 
34 | O=C(CSc1ncccn1)Nc1cc(Cl)ccc1[N+](=O)[O-] |  | inconclusive: 17.8 µM [quencher, side channel, partial curve]
35 | Cc1ccc(OCc2cc(C(=O)N(C)Cc3cnn(-c4ccccc4C)c3)no2)cn1 | inactive: -5.47% | 
36 | O=C(O)C(c1ccccc1)N1C(=O)c2cccc3cccc(c23)C1=O (stereo not given) |  | inconclusive: 10 µM [quencher, side channel, partial curve]
37 | CC(=NCc1ccco1)C1=C(O)c2ccccc2C1=O |  | inconclusive: 20 µM [quencher, side channel, single point]
38 | O=C(Nc1ccncc1)Nc1ccc(F)c(Cl)c1 | inactive: -27.3% | 
39 | Cc1ccc(/C=N/n2c(C)nc3ccccc3c2=O)s1 |  | inconclusive: 28.2 µM [quencher, side channel, partial curve]
40 | N#Cc1c(-c2cccs2)cc(-c2cccnc2)nc1N |  | inconclusive: 22.4 µM [quencher, side channel, partial curve]
41 | O=[N+]([O-])c1cccc(/C=N/NC2=NS(=O)(=O)c3ccccc32)c1 |  | inconclusive: 39.8 µM [quencher, side channel, single point]
42 | CCn1cc([N+](=O)[O-])c(C(=O)Nc2ccc(Br)cn2)n1 |  | inconclusive: 14.1 µM [quencher, side channel, partial curve]
43 | CN(C)CCNC(=O)c1ccc(Sc2ccc(Br)cc2)c([N+](=O)[O-])c1 |  | inconclusive: 8.91 µM [quencher, side channel, partial curve]
44 | CCN(CC)C(=O)CSc1ccc(C(F)(F)F)cc1[N+](=O)[O-] |  | inconclusive: 25.1 µM [quencher, partial curve]

Row | Structure (SMILES) | activity change, negative = inhibition | Potency
45 | O=C1C2C(c3ccccc3)C=CC(c3ccccc3)C2C(=O)N1C1CCCCC1 (stereo not given) | inactive: -0.142% | 
46 | Cc1ccc(-c2ccnc3c(Br)c(C)nn23)cc1 |  | inconclusive: 14.1 µM [quencher, side channel, partial curve]
47 | COCCNC(=S)N/N=C(\C)c1cc2ccccc2o1 |  | inconclusive: 10 µM [quencher, side channel, full curve, poor fit]
48 | Cc1ccc(NC(=O)CN2C(=O)N/C(=C\c3cccn3-c3cccc(C(=O)O)c3)C2=O)cc1 |  | inconclusive: 31.6 µM [quencher, side channel, single point]
49 | CC(/C=N/n1cnnc1)=C\c1ccco1 |  | inconclusive: 17.8 µM [quencher, side channel, partial curve]
50 | Cc1ccc(CN2C(=O)NC(Cc3c[nH]c4ccccc34)C2=O)cc1 (stereo not given) |  | inconclusive: 12.6 µM [fluorescent, side channel, partial curve]
51 | c1csc(Cc2nn3c(-c4ccncc4)nnc3s2)c1 |  | inconclusive: 14.1 µM [quencher, side channel, partial curve]
52 | COc1ccc(/C=N/NC(=O)CN2CCS(=O)(=O)CC2)cc1 | inactive: 12.3% | 
53 | COc1cc(CC(=O)OCC(=O)Nc2ccc([N+](=O)[O-])cc2)cc(OC)c1OC |  | inconclusive: 25.1 µM [quencher, side channel, partial curve]
54 | COc1cc(/C=C2\OC(=O)c3c(OC)cccc32)ccc1O |  | inconclusive: 3.55 µM [quencher, side channel, partial curve]
55 | CC1CN(S(=O)(=O)c2ccc(CN3C(=O)c4cccnc4C3=O)s2)c2ccccc2O1 (stereo not given) |  | inconclusive: 44.7 µM [quencher, side channel, partial curve]
56 | CC1CCc2sc(NC(=S)NC(=O)c3ccccc3)c(C#N)c2C1 (stereo not given) | inactive: 10.7% | 
57 | COCc1nc2sc(C)c(C)c2c(=O)[nH]1 |  | inconclusive: 7.08 µM [quencher, side channel, single point]
58 | Cc1ccc(Cc2nc(-c3ccccn3)no2)cc1 | inactive: -4.26% | 
59 | C=CCN(C(=O)c1csnn1)C(C(=O)NCc1ccc(F)cc1)c1cccs1 (stereo not given) | inactive: 1.07% | 
60 | Cc1c(CNC2CCCC2)c(C(=O)O)c(C)n1Cc1ccccc1 | inactive: 2.8% | 
61 | O=C(Nc1ccccc1)Oc1ccc[nH]c1=O | inactive: -5.13% | 
62 | COc1ccc(C(=O)NC2CCCN(Cc3ccccc3F)C2)c(OC)c1OC (stereo not given) | inactive: -5.34% | 
63 | CCC(C(=O)Nc1ccc(C)cc1)c1ccccc1 (stereo not given) | inactive: -7.7% | 
64 | O=C(CC1CC2CCC1C2)OCC(=O)c1c[nH]c2ccccc12 (stereo not given) |  | inconclusive: 100 µM [inhibitor, partial curve]
65 | CN=C1S/C(=C\c2ccc(SC)cc2)C(=O)N1C |  | inconclusive: 17.8 µM [quencher, side channel, partial curve]
